From ChEMBL document CHEMBL1157539, “Thousands of chemical starting points for antimalarial lead identification” (Nature, 2010) come the findings set out here.

Over roughly 13,000 compounds, “IFI” has its median near 4; the highest 2% begin near 17. The list shows a part of the results.

The nature of the assay: GSK_TCMDC: Inhibition Frequency Index (IFI). The number of non-kinase HTS assays where a compound showed > 50 % inhibition, expressed as a percentage of the number of such assays in which the compound was tested (-0 is zero). It counts as functional.
Turning to `O=[N+]([O-])c1ccc(C=NNc2nc3ccccc3[nH]2)cc1`, the IFI came out at 0%.
The result for `COc1cccc(CN(C(=O)Nc2ccccc2F)[C@H]2C[C@H]3C(=O)Nc4cc(F)ccc4C(=O)N3C2)c1` reads 0.7%; that for `O=C(/C=C/c1ccc(Cl)c(Cl)c1)N1CCC(CCN2CCC(c3c[nH]c4cc5c(cc34)OCO5)CC2)CC1`, 7.25%; that for `Clc1ccc2c(N3CCN(CCN4CCN(c5ccnc6cc(Cl)ccc56)CC4)CC3)ccnc2c1`, 0%.
Consider `CC(C)(C)C(=O)Nc1c(-c2cc(=O)oc3cc4c(cc23)CCC4)oc2ccccc12`, for which the IFI came out at 5.08%.
Take `Nc1c(Cl)cc(C(O)CNCCCCCOCCc2ccccc2)cc1C(F)(F)F` (stereo not drawn): the IFI turned out to be 3.01%.
Take `N#Cc1cncc(-c2nc3c(N4CCCC(N)C4)cccc3n2CCNCc2ccccc2)c1` (stereo not drawn): the IFI stood at 0%.
Take `O=C(Nc1ccc(Cn2ncc(N3CCCNCC3)c(Cl)c2=O)cc1)Nc1cc(C(F)(F)F)cc(C(F)(F)F)c1`: the IFI was 5.88%.
`CC(C)S(=O)(=O)N1CCN(Cc2ccc3c(c2)nc(NC(=O)c2ccsc2)n3C[C@H](O)c2ccccc2)CC1` showed an IFI of 5.63%.
`Cc1cnc(-c2ccc(NC(=O)c3coc4ccc(N5CC(C)N(C)C(C)C5)cc34)cc2)o1` (stereo not drawn) had an IFI of 3.52%.
The result for `Oc1ccc(Cc2cc(Oc3c(I)cc(CCc4ncc[nH]4)cc3I)ccc2O)cc1` reads 8.97%; that for `CC(=O)Nc1ccc(CN(Cc2ccc(F)cc2)Cc2ccc3c(c2)OCO3)cc1`, 2.82%.
`c1ccc2c(NCCCCCCCNc3ccnc4ccccc34)ccnc2c1`: the IFI is 11.3%.
Next, `COc1ccc2nccc(NC(=O)C3CCC(NCc4ccc5c(c4)NC(=O)CS5)CC3)c2c1` (stereo not drawn): 1.5%; `CCCCCCc1ncc(-c2cc3cc(O)c(-c4ccccc4)cc3oc2=O)s1`: -0%; `Cc1ccoc1C(=O)Nc1cccc(-c2cccc(-c3nc4cc(C(F)(F)F)ccc4[nH]3)c2)c1`: 6.48%.
As for `O=C(O)CCc1ccc(-c2c[nH]c3ncc(-c4ccc5ncccc5c4)cc23)cc1`, the IFI stood at 5.88%.
Next, `O=C(NCc1ccc(C(=O)NC2CCCCC2)cc1)c1ccc(O)c(-c2ccc(Cl)c(Cl)c2)c1`: 3.68%; `CCN(CC)CCN(Cc1ccc(-c2ccc(C(F)(F)F)cc2)cc1)C(=O)Cn1c(CCc2cccc(F)c2F)nc(=O)c2cc(F)ccc21`: 6.82%.
Next, `COc1cc(NC(=O)/C=C/c2ccccc2Cl)cc(OCCN2CCC(O)(c3ccccc3)CC2)c1`: 6.52%; `Cc1cc(C)n(-c2nc(Nc3cccc(C(F)(F)F)c3)nc(-n3nc(C)cc3C)n2)n1`: 0.74%; `COc1ccc(NC(=O)[C@H](CC(C)C)Nc2ccnc(NCCc3ccc(F)cc3)n2)cc1`: 6.82%.
Regarding `CC(CN(C)C)C(=O)Nc1cccc(-c2ccc(-c3nc4cc(F)ccc4[nH]3)s2)c1` (stereo not drawn), the IFI came to 3.64%.
The molecule `N=C(N)Nc1nc(-c2cc(NC(=O)C(F)(F)F)cc([N+](=O)[O-])c2)cs1` came in with an IFI of 2.24%.
Molecule `C/C=C/C=C/C1=NCCc2cc(OCCC)ccc21` yielded an IFI of 8.76%.
With `O=C1SC(=Cc2ccc(O)c(O)c2)C(=O)N1c1ccccc1`, the IFI stood at 9.86%.
On to `CC1CN(c2cc(=O)n(Cc3cccc(NC(=O)Nc4ccc(-c5ccccc5)cc4)c3)cn2)CC(C)N1` (stereo not drawn), for which the IFI came to 7.53%.
Turning to `CCC(CC)N1C(=O)C(c2ccccc2)(c2ccccc2)N=C1N`, the IFI came to 0.95%.
In turn, `O=C(N[C@H]1CCN(CCc2ccc(O[C@H]3CCNC3)c(F)c2)C1)c1ccc(Cl)c(Cl)c1` showed an IFI of 6%.
Next, `Cc1cc(=O)c(-c2ccc(OCc3ccc(OC(F)(F)F)cc3)cc2)c(C)[nH]1`: 3.64%; `COc1cc(/C=C/C(=O)NCC(CCNc2cc(=O)c3ccccc3[nH]2)NCc2cc(Br)cc(Br)c2)cc(OC)c1` (stereo not drawn): 7.91%; `COc1ccc2c(c1)C(C)(CCCN(C)C)C(=O)N2C` (stereo not drawn): 0%.
The result for `COc1ccc(C(=O)CCC(=O)N(CCC2CCCN2C)Cc2ccc(-c3ccc(CNCCc4ccc(S(C)(=O)=O)cc4)cn3)cc2)cc1F` (stereo not drawn) reads 3.55%.
The molecule `O=C(NCCN1CCC(c2ncc(-c3ccccc3)o2)CC1)c1ccc(NC(=O)c2ccc(Cl)cc2)cc1` gave an IFI of 8.55%.
On to `Cc1nn(C)cc1C(C)Nc1nncc(-c2ccc(C(F)(F)F)cc2)n1` (stereo not drawn), for which the IFI came to 2.38%.
The result for `O=C(/C=C/c1ccc(I)cc1)NCCCCCN1CCC(c2c[nH]c3ccc(O)cc23)CC1` reads 2.88%; that for `Cc1ccc(Nc2nc(C)cc(N3CCN(CCc4ccccc4)CC3)n2)cc1`, 11.9%.
Consider `CC(C)c1ccc(NC(=O)c2ccc(C(=O)NC3CCN(CC4CCCCC4)CC3)cc2)cc1`, for which the IFI turned out to be 4.35%.
In turn, `Oc1ccc(-c2cc(-c3ccc(O)cc3)nc(-c3ccccc3)n2)cc1` gave an IFI of 4.17%.
Next, `c1cc(C2=NC3CCCCC3N2)ccc1OCCCOc1ccc(C2=NC3CCCCC3N2)cc1` (stereo not drawn): 2.21%; `Cc1cc(NC2CCN(CC3CCCCC3)C2)nc(Nc2ccc(Br)cc2)n1` (stereo not drawn): 5.13%; `CCCCCCCNC(=O)NCC1CCCN(CCCCCNC(=O)/C=C/c2ccc(Cl)c(Cl)c2)C1` (stereo not drawn): 10.5%.
Take `Cc1ccccc1C1CCN(C2CCC(NC(=O)c3cc4cc(C(C)C)ccc4[nH]3)CC2)CC1` (stereo not drawn): the IFI was found to be 19.6%.
The molecule `CNS(=O)(=O)c1ccc2c(c1)nc(C1CCN(CC3CCC(NC(=O)/C=C/c4ccc(Cl)c(Cl)c4)CC3)CC1)n2C` (stereo not drawn) displayed an IFI of 5.84%.
In the case of `CN(C)Cc1ccc(-c2ccc3c(Nc4ccc(Oc5ccccn5)cc4)ccnc3c2)o1`, the IFI was 7.19%.
Turning to `COc1cc(N)cc2sc(N)nc12`, the IFI amounted to 4.93%.
For the molecule `CCN(CC)CCN(Cc1ccc(-c2ccc(C(F)(F)F)cc2)cc1)C(=O)Cn1c(CCc2cc(F)cc(F)c2F)nc(=O)c2ccccc21`, the IFI is 9.79%.
`COc1ccc2c(c1C1CCN(CCCCNC(=O)c3ccc(-c4ccc(Cl)cn4)cc3)CC1)CCCC2` came in with an IFI of 4.48%.
In turn, `CC[C@H](C)CNC(=O)c1cccc(-c2cccc(CN3CCC(N4CCCC4)CC3)c2)n1` showed an IFI of 10.4%.
The result for `COCCOc1cc(C)c(C2CCN(CCCCNC(=O)c3ccc(NC(=O)c4ccc(Cl)cc4)cc3)CC2)cc1C` reads 1.52%; that for `c1cc(-c2ccc(CN3CCCCC3)cc2)cc(-c2nc3ccccc3[nH]2)c1`, 1.41%.
In the case of `c1ccc2[nH]c(-c3ccc(-c4ccc(CN5CCN(CCN6CCOCC6)CC5)cc4)s3)nc2c1`, the IFI came to 4.23%.
Turning to `O=c1cc(NCCC(CNCc2ccc(Br)o2)NCc2cc(Br)cc(Br)c2)[nH]c2ccccc12` (stereo not drawn), the IFI worked out at 5.88%.
In the case of `COc1ccc2c(c1CNCCCCCCNCc1c(OC)ccc3c1CCCC3)CCCC2`, the IFI was determined as 11.9%.
On to `Cc1cccc(CNc2nc(C)cc(NCCC(=O)Nc3ccccc3)n2)c1`, for which the IFI came out at 7.5%.
Next, `CN(C)CCOc1cc(NC(=O)Nc2ccc(-c3ccncc3)c(Cl)c2)ccc1I`: 5.26%; `CC(C(=O)Nc1ccc(Br)cc1Br)N1CCN(C(=O)c2ccco2)CC1` (stereo not drawn): 2%; `COc1ccc2c(=O)c(I)c(C)[nH]c2c1`: 0.74%.
`c1cc(-c2ccc(CNCCCN3CCOCC3)cc2)cc(-c2nc3ccccc3[nH]2)c1`: the IFI is 2.86%.
`Cc1ccc(C(=O)Nc2ccc(C)c(OC3CCN(Cc4ccco4)C3)c2)cc1` (stereo not drawn) had an IFI of -0%.
Next, `CN1C(C)(C)CC(NC(=O)c2ccc(-c3cc4cc(Cl)c(Cl)cc4[nH]3)o2)CC1(C)C`: 0.72%; `CCCCC1=CC2C(=O)C(C(=O)OC)=CN=C2C=C1OCc1ccccc1` (stereo not drawn): -0%.
As to `CN(C)CC1CCCN1Cc1ccccc1-c1cnn(C)c(=O)c1Oc1ccccc1F` (stereo not drawn), the IFI was -0%.
Next, `CCCCCC(C)C(C)c1cc(O)c2c(c1)OC(C)(C)C=C2c1cc[n+]([O-])cc1` (stereo not drawn): 0%.
In turn, `CC12CCC(CN(CC(O)Cn3c4ccccc4c4cc(I)ccc43)C1)C2(C)C` (stereo not drawn) had an IFI of 0%.
`Nc1nc2c(ncn2OC[C@H]2COP(=O)(O)CO2)c(=O)[nH]1` returned an IFI of 0%.
Turning to `CNCCNCc1ccc(-c2cccc(-c3nc4cc(F)ccc4[nH]3)c2)cc1`, the IFI was 8.91%.
Next, `CN(C)S(=O)(=O)n1ccc2c3c(N)nc(N)nc3ccc21`: 4%; `Cc1cccc2nc(-c3ccc(-c4ccc(CN5CCN(CCO)CC5)cc4)s3)[nH]c12`: 7.84%.
For `c1ccc(CCNCc2ccc(-c3ccc(CNC4CCN(Cc5ccccc5)CC4)cc3)nc2)cc1`, the IFI was determined as 3.7%.
Next, `O=C(Nc1ccc([N+](=O)[O-])cc1)c1nn(-c2ccccc2)cc1/N=C/c1cccc(O)c1`: 2.22%; `Cc1noc(-c2ccccc2)c1NC(=O)NC1CCN(CCCCCNC(=O)/C=C/c2ccc(Cl)c(Cl)c2)CC1`: 2.38%.
Next, `COc1cc(-c2nc(-c3ccc(C(=O)c4ccc(F)cc4)cc3)c(-c3ccccc3)[nH]2)cc(OC)c1O`: 5.07%; `CCNc1cc(C(=O)N[C@@H](Cc2ccccc2)[C@H](O)CNC(C)(C)Cc2cccc(OC)c2)cc(N2CCCC2=O)c1`: 2.17%; `O=C(Nc1cccnc1)c1ccc(-c2cc3ccncc3cc2OC2CCNCC2)s1`: 2.7%.
Turning to `O=C(Nc1cccc(-c2nn3ccccc3c2-c2ccnc(Nc3cccc(F)c3)n2)c1)c1c(F)ccc(F)c1Cl`, the IFI is 4.26%.
`CCCc1ccc(NC(=O)c2ccc(CN3CCCN(CC4CCCCC4)CC3)cc2)cc1` showed an IFI of 14.4%.
The result for `COc1ccc2nccc([C@@H](O)CN3CCC(NC(=O)COc4nc(SCc5ccc(F)cc5)nc5c4CCC5)CC3)c2c1` reads 2.14%; that for `Cc1c(CNCCCNc2nc3ccccc3[nH]2)[nH]c2cc(Cl)cc(Cl)c12`, 7.69%.
For `CC(C)(C)c1ccc(NC(=O)c2ccc(CN3CCCN(Cc4cccc(O)c4)CC3)cc2)cc1`, the IFI turned out to be 16.9%.
Consider `N#Cc1ccc2c(c1)CCN(CCC1CCC(NC(=O)/C=C/c3cccc4cc[nH]c34)CC1)CC2` (stereo not drawn), for which the IFI came out at 3.73%.
Molecule `CCOc1cc(C(=O)NCCN(CC)c2cccc(C)c2)ccc1-c1nc2cc(Cl)ccc2[nH]1` came in with an IFI of 0.71%.
The result for `CCCNC(=O)C1CCN(C(c2ccccc2)c2ccc(Cl)c(Cl)c2)CC1` (stereo not drawn) reads 2.74%; that for `O=C(c1cc(C(=O)Nc2ccccc2)c(=O)n(-c2ccccc2)c1)c1cc(Cl)ccc1O`, 5.5%.
Consider `CCCC1(C)CSc2ccccc2C(c2ccccc2)N1` (stereo not drawn), for which the IFI came to 1.38%.
Consider `Cc1cc(N2CCN(C)CC2)nc2ccc(NC(=O)c3cccc(N(C)C)c3)cc12`, for which the IFI was determined as 4.31%.
On to `CN(C)CCNC(=O)c1cccc(-c2cnc3ccc(NCc4ccc(Cl)c(Cl)c4)nn23)c1`, for which the IFI was 9.02%.
Take `COc1ccc2nccc([C@@H](O)CN3CCC(NCc4cnc5snnc5c4)C(F)C3)c2c1` (stereo partly drawn): the IFI turned out to be 4.65%.
